Among all 420,000 compounds or so, about 50,000 (12%) were called active. This list was built around the results that the source calls inconclusive (neither active nor inactive); the mix of calls is not that of the screen. Calls come from the whole dose curve; as a rule, active = well fitted inhibition curve with a large enough effect; inconclusive = small, poorly fitted or top-dose-only effect; inactive = flat fitted curve, though single readings scatter. Potencies of inconclusive entries are left out as doubtful fits.
Assay: qHTS for Inhibitors of human tyrosyl-DNA phosphodiesterase 1 (TDP1): qHTS in cells in presence of CPT; note: nearly all actives have a fitted effect of over 55% in size
Conditions: chicken DT40 Tdp1-/-;hTDP1 cells + 20 nM CPT, ATP luminescence, 48 h; activity change, negative = growth inhibition: at 46.2 µM (top of the series) unless noted
Summary of the method: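 Chicken DT40 Tdp1-/- cells complemented with human TDP1, 400 cells/well, exposed to compounds plus 20 nM camptothecin for at least 48 h at 37 C; viability read as ATP content by CellTiter-Glo luminescence.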
% is set by controls: 0 for no effect and ±100 for the full control effect; potency is the fitted concentration of half-maximal effect; tags give direction and shape of the fitted curve.

Compound	Potency	activity change, negative = growth inhibition
CC(C)Oc1ccc(CC2CCC(=O)N(C)C2=O)cc1 (centres undefined)	inactive	
COc1ccc(N2CCN(CC(=O)N3CCC(C)CC3)CC2)cc1	inactive	
COc1ccc2nc(-c3cccc(N)c3)[nH]c2c1	inconclusive [inhibitor, partial curve, poor fit]	
N=c1n(CCN2CCCCC2)c2ccccc2n1CC(=O)c1ccc(Cl)c(Cl)c1	inconclusive [inhibitor, single point]	
CCOC(=O)C(=O)Nc1nc(-c2ccccc2)c(-c2ccccc2)o1	inactive	
COc1ccc(-n2c(O)c(/C=N/NS(=O)(=O)c3ccc(C)c([N+](=O)[O-])c3)c3ccccc3c2=O)cc1OC	inconclusive [inhibitor, single point]	
COc1ccccc1N1CCN(C(=O)c2ccc(CN3CCc4ccccc4C3)cc2)CC1	active: 16.4 µM	
CC(C)(C)C(=O)COC(=O)c1c2c(nc3ccccc13)CCC2	inactive	
O=C(Nc1ccc2nc(-c3cccnc3)[nH]c2c1)C1CCCCC1	inconclusive [inhibitor, single point]	
COc1ccc(NC(C)c2cc(Cl)ccc2O)cc1 (centres undefined)	inactive	
CC1(C(=O)NS(=O)(=O)C2CC2)CCCN(C(=O)c2c(F)cccc2F)C1 (centres undefined)	active: 5.17 µM	
O=c1c2ccccc2nc2sc3ccccc3n12	inconclusive [inhibitor, single point]	
CCOC(=O)c1c(C)[nH]c(C(=O)CN(C)CC(=O)Nc2ccccc2C(F)(F)F)c1C	inactive	
O=S1(=O)CCOC[C@H](Cc2ccccc2)N1Cc1ccccc1Br	inconclusive [inhibitor, single point]	
COc1ccc(N(C)C(=O)C2CCN(S(=O)(=O)c3cccc4nonc34)CC2)c(OC)c1	inconclusive [inhibitor, single point]	
Cc1nnc(C(C)C)n1C1C[C@H]2CC[C@@H](C1)N2CC[C@H](NC(=O)C1CCC(F)(F)CC1)c1ccccc1 (some centres undefined)	inactive	
Cc1ccc(CSCc2ccc(C(=O)NCCCN3CCOCC3)o2)cc1		inconclusive: -30.9% [inhibitor]
O=C(CSc1nnc(-c2ccc(Cl)s2)o1)N1CCCc2ccccc21	inconclusive [inhibitor, single point]	
O=C(c1cc(COc2cccc(C(F)(F)F)c2)on1)N1C[C@H]2CC[C@H]1C2	inconclusive [inhibitor, partial curve]	
COc1ccc(N(CC(=O)NCCSc2ccccc2)S(=O)(=O)c2ccccc2)c(OC)c1	inconclusive [inhibitor, single point]	
Cc1ccc2nc(-c3ccccc3)cc(C(=O)N3CCN(c4ccccc4O)CC3)c2c1	inconclusive [inhibitor, single point]	
COc1ccc(/C(O)=C2/C(=O)C(=O)N(c3ccccn3)C2c2ccc(C(C)C)cc2)cc1 (centres undefined)	inconclusive [inhibitor, single point]	
COc1cc(C(=O)N/N=C/c2ccc(OC(=O)c3ccccc3Cl)c(OC)c2)ccc1O	inconclusive [inhibitor, single point]	

Compound	Potency	activity change, negative = growth inhibition
C/C=C/c1ccc(OCCCCN2CCC(C)CC2)c(OC)c1	inconclusive [inhibitor, single point]	
CCN(C(=O)COc1cccc2cccnc12)C1CCS(=O)(=O)C1 (centres undefined)	inconclusive [inhibitor, single point]	
COc1cccc(N2CCN(Cc3nc4ccccc4c(=O)[nH]3)CC2)c1	inactive	
Cc1cc(C)c(C(=O)COC(=O)c2cc([N+](=O)[O-])ccc2N2CCOCC2)cc1C	inconclusive [inhibitor, single point]	
CCOc1ccc(C(=O)c2cn(CC(=O)Nc3ccc(F)c(F)c3)c3cc4c(cc3c2=O)OCCO4)cc1	inconclusive [inhibitor, partial curve]	
CC(C)(C)c1cc(-c2csc(Nc3ccccc3)[n+]2Cc2ccc(C(=O)O)cc2)cc(C(C)(C)C)c1O	inconclusive [inhibitor, single point]	
C/C(CCc1ccc2c(c1)OCO2)=N\NC(=O)c1ccc(C)cc1C	inactive	
CC(C)Nc1nc(NC(C)C)nc(SCC(N)=O)n1	inactive	
C[C@]12C=CC(=O)C=C1CCC1C2C(=O)C[C@]2(C)C1CC[C@]2(O)C(=O)CO (some centres undefined)	inactive	
Cc1ccnc2c(Cl)cccc12	inconclusive [inhibitor, single point]	
O=S(=O)(c1ccccc1)N1CCN(c2nc(-c3cccnc3)nc3ccccc23)CC1	inconclusive [inhibitor, single point]	
CSc1ncc(Cl)c(C(=O)Nc2c(C(=O)c3ccc(C)c(F)c3)oc3ccccc23)n1	inactive	
CCCCN(C=O)c1c(CC)nc2ccc(C(=O)N3CCCCC3)cn12	inconclusive [inhibitor, partial curve, poor fit]	
CCOc1cc(OCC)nc(S(C)(=O)=O)n1	active: 20.6 µM	
Cc1cc(C)cc(C(=O)NCC(=O)N2CCN(C(c3ccccc3)c3ccccc3)CC2)c1	inconclusive [inhibitor, single point]	
CC(C)CNS(=O)(=O)c1ccc(Br)cc1N1CCC[C@@H]1CO	inconclusive [inhibitor, single point]	
O=C(CCc1nnc(-c2ccsc2)o1)N1CCc2c(Cl)cccc2C1	inactive	
Cc1c(C(=O)NCc2ccccc2)cnn1-c1ccccc1	inactive	
COc1ccc(CN(C)Cc2c(O)ccc3cc(Br)ccc23)cc1OC	inactive	
NC(=O)C1CCN(CC(=O)Nc2cccc(C(=O)Nc3cccc(C(F)(F)F)c3)c2)CC1	inconclusive [inhibitor, single point]	
COc1cccc(CNC(=O)C(Cc2ccccc2)NS(=O)(=O)c2ccc3c(c2)oc(=O)n3C)c1 (centres undefined)	inconclusive [inhibitor, partial curve]	
CC(C)C(NC(=O)C(NC(=O)C1O[C@@H]2OC(C)(C)O[C@@H]2[C@H]2OC(C)(C)O[C@@H]12)C(C)C)C(=O)O (some centres undefined)	inconclusive [inhibitor, partial curve, poor fit]	
COc1cccc(-c2ncc3ccccc3c2COC(=O)c2ccc(C(F)(F)F)cc2)c1	inconclusive [inhibitor, single point]	

Compound	Potency	activity change, negative = growth inhibition
c1ccc(-c2[nH]ncc2CN2CCN(Cc3ccc4c(c3)OCO4)CC2)cc1	inactive	
Cc1cc2[nH]c(=O)c(=O)[nH]c2cc1S(=O)(=O)Nc1ccc(OC(F)(F)F)cc1	inactive	
COc1ccc(C(CC(=O)N2CCCC2)c2c(OC)cc(OC)c3c(-c4ccccc4)cc(=O)oc23)cc1 (centres undefined)	inconclusive [inhibitor, single point]	
Cc1nc2ccccc2c2c1CC(C)S2 (centres undefined)	inactive	
CC(C)OC(=O)COc1cc(O)c2c(=O)cc(-c3ccccc3)oc2c1	inactive	
O=C(NCC1COc2ccccc2O1)c1cccc(S(=O)(=O)N2CCN(c3ccccc3)CC2)c1 (centres undefined)	active: 18.4 µM	
N#Cc1ccc(NC(=O)N2CCC(c3nc4c(nnn4Cc4cccc(Cl)c4)c(=O)[nH]3)CC2)cc1	inconclusive [inhibitor, partial curve]	
COc1ccccc1/C=C1\SC(=O)N(CCC(=O)NCCCn2ccnc2)C1=O	inconclusive [inhibitor, single point]	
CCOc1ccc(NC(=S)Nc2ccc(F)cc2)cc1	inconclusive [inhibitor, partial curve, poor fit]	
Cc1cccc(NC(=O)c2ccc3nc(CCc4ccccc4)oc3c2)c1C	active: 18.4 µM	
O=C(c1cc(-c2ccccn2)nc2ccc(Br)cc12)N1CCN(S(=O)(=O)c2ccccc2)CC1	inconclusive [inhibitor, single point]	
COc1ccc(-c2noc(CSc3nc(N)cc(=O)[nH]3)n2)cc1	active: 16.4 µM	
CCOC(=O)C1=CCN(S(=O)(=O)c2ccc(F)cc2)C1c1ccc(F)cc1 (centres undefined)	inconclusive [inhibitor, single point]	
CC(C)n1nccc1N(Cc1ccc(Br)cc1)S(=O)(=O)c1ccccc1	active: 23.1 µM	
CCC1CCCCN1C(=O)COC(=O)c1cncc(Br)c1 (centres undefined)	inactive	
CN1CCN(c2ccc(S(=O)(=O)N3CCCCC3)cc2NC(=O)/C=C/c2ccc(Cl)c([N+](=O)[O-])c2)CC1	inconclusive [inhibitor, single point]	
COc1ccc(N2CCN(c3nc4cc(C)ccc4cc3C=O)CC2)cc1	inconclusive [inhibitor, single point]	
COc1cc2c(cc1OC)C(=O)NCC(C)(C)O2	inactive	
Cc1ccc(C)c2[nH]c(=O)c(CN(Cc3cccnc3)C(=S)NCc3ccco3)cc12	inconclusive [inhibitor, single point]	
CCC(NC(=O)c1ccccc1NC(=O)c1ccccc1)C(=O)NNC(=O)CSc1nc2ccccc2o1 (centres undefined)	inconclusive [inhibitor, single point]	
CCC1CCCCN1C(=O)Cn1nc([N+](=O)[O-])c(Cl)c1C (centres undefined)	inactive	
CC1CCN(S(=O)(=O)c2ccc(NC(=O)CN3CCCCCC3)cc2)CC1	inconclusive [inhibitor, single point]	
COc1ccccc1NC(=S)N(Cc1ccccc1)Cc1ccccn1	inconclusive [inhibitor, single point]	

Source: PubChem BioAssay AID686979 (National Center for Advancing Translational Sciences (NCATS), 2013)
